Hit rate of the full screen: of about 310,000 compounds, about 14,000 (4.5%) showed an effect of 50% or more. Effects have a minus sign here. The list shows a part of the results.
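Further: peak tail current of the secondary pulse compared with the same well before compound.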

human ether-à-go-go-related gene (hERG) potassium channel, sequence (Q12809 whole entry, looked up): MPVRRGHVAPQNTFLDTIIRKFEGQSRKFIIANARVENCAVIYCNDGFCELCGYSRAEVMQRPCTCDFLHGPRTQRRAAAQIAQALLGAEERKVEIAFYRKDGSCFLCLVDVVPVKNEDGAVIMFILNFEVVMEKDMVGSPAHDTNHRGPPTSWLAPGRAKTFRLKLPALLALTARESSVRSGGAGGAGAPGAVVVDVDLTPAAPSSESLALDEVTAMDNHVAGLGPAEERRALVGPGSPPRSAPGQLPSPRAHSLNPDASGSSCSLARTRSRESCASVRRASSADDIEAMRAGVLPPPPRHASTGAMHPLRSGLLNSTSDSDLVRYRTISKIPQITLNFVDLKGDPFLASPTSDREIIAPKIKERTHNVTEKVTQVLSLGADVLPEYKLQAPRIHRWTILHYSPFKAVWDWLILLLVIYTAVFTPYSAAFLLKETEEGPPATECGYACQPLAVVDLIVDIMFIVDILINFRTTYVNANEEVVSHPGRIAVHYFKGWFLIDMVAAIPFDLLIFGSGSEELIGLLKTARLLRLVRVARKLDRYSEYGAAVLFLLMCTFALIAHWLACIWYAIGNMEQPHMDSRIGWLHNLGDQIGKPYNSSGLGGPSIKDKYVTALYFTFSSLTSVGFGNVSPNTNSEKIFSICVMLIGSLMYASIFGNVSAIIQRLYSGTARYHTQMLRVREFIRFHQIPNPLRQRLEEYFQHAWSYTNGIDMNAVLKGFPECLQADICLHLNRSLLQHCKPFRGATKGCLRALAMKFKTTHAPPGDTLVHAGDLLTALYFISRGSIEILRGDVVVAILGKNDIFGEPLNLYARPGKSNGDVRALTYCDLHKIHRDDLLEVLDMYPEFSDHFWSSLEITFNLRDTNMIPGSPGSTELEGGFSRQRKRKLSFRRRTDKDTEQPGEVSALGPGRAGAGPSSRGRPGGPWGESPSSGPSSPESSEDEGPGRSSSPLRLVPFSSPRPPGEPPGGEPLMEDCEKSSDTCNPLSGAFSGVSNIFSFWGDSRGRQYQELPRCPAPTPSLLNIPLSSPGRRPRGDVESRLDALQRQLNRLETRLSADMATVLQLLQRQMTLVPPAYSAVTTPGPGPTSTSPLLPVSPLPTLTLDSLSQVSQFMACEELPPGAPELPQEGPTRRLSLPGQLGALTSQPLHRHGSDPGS

The test addresses human ether-à-go-go-related gene (hERG) potassium channel (human, UniProt Q12809). As to the kind of experiment: primary screen, population patch clamp on CHO cells stably expressing hERG.
As to `CC(=O)c1ccc(C(=O)NC2CCCN(Cc3ccccc3F)C2)cc1` (stereo not drawn), the “hERG current change (%, negative = inhibition) at 10uM” value amounted to 1.68%.

For `CCOC(=O)C1CCCN(S(=O)(=O)c2cc(Br)cc3c2N(C(=O)C2CC2)CC3)C1` (stereo not drawn), the “hERG current change (%, negative = inhibition) at 10uM” value is -7.49%.

Consider `O=c1[nH]c(=O)c2cc([N+](=O)[O-])cc([N+](=O)[O-])c2[nH]1`, for which the “hERG current change (%, negative = inhibition) at 10uM” value is 20.7%.

As for `CN(C)c1ccc(/C=N/NC(=O)c2cc(=O)[nH]c3ccccc23)cc1`, the “hERG current change (%, negative = inhibition) at 10uM” value came out at 9.79%.

For `O=C(NCc1ccccn1)Nc1ccccc1C(F)(F)F`, the “hERG current change (%, negative = inhibition) at 10uM” value is 12.7%.

With `Cc1cccc(N2CN=C3SCC(=O)N3C2)c1`, the “hERG current change (%, negative = inhibition) at 10uM” value is 0.175%.

For `O=C1Nc2ccccc2OC1CC(=O)N1CCCC1` (stereo not drawn), the “hERG current change (%, negative = inhibition) at 10uM” value is -5.31%.

Take `CN1CCN(CCCNc2c(C=O)c(=O)[nH]c3ccccc23)CC1`: the “hERG current change (%, negative = inhibition) at 10uM” value is recorded as 14.9%.

Regarding `Cc1nn(C)c(C)c1NC(=O)/C(C#N)=C\N(C)C`, the “hERG current change (%, negative = inhibition) at 10uM” value was found to be 12.6%.

Regarding `CN(CCc1ccccn1)C(=O)CCC1CCCN(C(=O)c2cscn2)C1` (stereo not drawn), the “hERG current change (%, negative = inhibition) at 10uM” value was -18.1%.

`CCN(Cc1ccccc1)C(=O)CN1C(=O)NC2(CC(C)CC(C)(C)C2)C1=O` (stereo not drawn): the “hERG current change (%, negative = inhibition) at 10uM” value is reported as -11.6%.

For the compound `COc1ccccc1OCC(=O)Nc1sc2c(c1C(=O)NCC1CCCO1)CCC2` (stereo not drawn), the “hERG current change (%, negative = inhibition) at 10uM” value was -8.43%.

On to `Cn1c(C(=O)N2CCCC(C(=O)O)C2)cc2sccc21` (stereo not drawn), for which the “hERG current change (%, negative = inhibition) at 10uM” value was 19.4%.

For the compound `CN(C)/C=C1\C(=O)N(c2ccc(F)cc2F)C(c2cccnc2)S1(=O)=O` (stereo not drawn), the “hERG current change (%, negative = inhibition) at 10uM” value came out at 21.7%.

Turning to `Cc1ccc2nc3c(cc(C(=O)NCc4ccco4)c(=N)n3Cc3ccco3)c(=O)n2c1`, the “hERG current change (%, negative = inhibition) at 10uM” value is -77%.

Consider `Cc1ccc(-c2nnn(CC(=O)N(Cc3ccco3)C(C(=O)NC(C)(C)C)c3ccc(C)o3)n2)o1` (stereo not drawn), for which the “hERG current change (%, negative = inhibition) at 10uM” value was -14.4%.

As for `CCOc1cc(CN2CCCC(N3CCN(c4ccc(F)cc4)CC3)C2)ccc1OC` (stereo not drawn), the “hERG current change (%, negative = inhibition) at 10uM” value is listed as -62.7%.

Turning to `Cc1cccc(C)c1-n1c(C)nn(-c2ncc(C(F)(F)F)cc2Cl)c1=O`, the “hERG current change (%, negative = inhibition) at 10uM” value amounted to 8.97%.

Consider `C=CCN1C(=O)/C(=C2/Sc3ccc(OC)cc3N2C)SC1=Nc1cccc(O)c1`, for which the “hERG current change (%, negative = inhibition) at 10uM” value is recorded as 21.1%.

For the compound `COc1ccc(-c2nc3cccc(C)n3c2NCc2ccco2)cc1OC`, the “hERG current change (%, negative = inhibition) at 10uM” value is -42.2%.

Take `Cc1ccc2c(c1)-c1c(cnn1CC(=O)O)CO2`: the “hERG current change (%, negative = inhibition) at 10uM” value is listed as 31.4%.

For the compound `CN(c1ccccc1)S(=O)(=O)c1ccc(NC(=S)Nc2ccccc2)cc1`, the “hERG current change (%, negative = inhibition) at 10uM” value is -6.18%.

With `CCOC(=O)c1c(C)[nH]c(O)c1C=Nc1ccc(C(F)(F)F)cc1`, the “hERG current change (%, negative = inhibition) at 10uM” value is 17%.

Take `O=C(COc1cccnc1[N+](=O)[O-])NCc1ccccc1`: the “hERG current change (%, negative = inhibition) at 10uM” value was -0.324%.

For `COc1ccc(OCC(=O)NNC(=O)Cc2coc3cc(OC)ccc23)cc1`, the “hERG current change (%, negative = inhibition) at 10uM” value is listed as -3.63%.

With `CCOC(=O)c1c(/N=C/c2ccc(C)cc2O)sc2c1CCN(C)C2`, the “hERG current change (%, negative = inhibition) at 10uM” value was determined as 2.41%.

On to `C(=NC12CN3CN(CN(C3)C1)C2)c1ccc2c(c1)OCO2`, for which the “hERG current change (%, negative = inhibition) at 10uM” value was -13.3%.

With `CCC(=O)N1CCc2cc(S(=O)(=O)CCC(=O)Nc3cccc(F)c3)ccc21`, the “hERG current change (%, negative = inhibition) at 10uM” value amounted to 5.94%.

On to `COC(=O)c1ccc(COC(=O)CNC(=O)c2ccc(C)s2)cc1`, for which the “hERG current change (%, negative = inhibition) at 10uM” value stood at 6.01%.

For the compound `O=C(Nc1ncccn1)C1c2ccccc2Oc2ccccc21`, the “hERG current change (%, negative = inhibition) at 10uM” value came to 11.9%.

For the compound `O=C(Nc1ccc([N+](=O)[O-])cn1)c1ccc(Br)o1`, the “hERG current change (%, negative = inhibition) at 10uM” value is on record as -11.6%.

As for `CCNc1c2c3c(cccc3n(C)c1=O)C(=O)c1ccccc1-2`, the “hERG current change (%, negative = inhibition) at 10uM” value is recorded as -4.97%.

Take `Cc1cccc(C(=O)O/N=C2\CCSc3ccc(C)cc32)c1`: the “hERG current change (%, negative = inhibition) at 10uM” value is listed as 1.99%.

In the case of `CCOCCCNCc1cc(Cl)ccc1OCC.Cl`, the “hERG current change (%, negative = inhibition) at 10uM” value was -11.8%.

`C=CCNC(=O)CCCC(=O)NCC=C`: the “hERG current change (%, negative = inhibition) at 10uM” value stood at 8.13%.

Take `CC(NC(=O)c1ccccc1)c1nc2ccccc2n1Cc1ccc(C#N)cc1` (stereo not drawn): the “hERG current change (%, negative = inhibition) at 10uM” value was -68.6%.

`COc1ccc2nc(SCC(=O)NC(C)c3ccccc3)[nH]c2c1` (stereo not drawn): the “hERG current change (%, negative = inhibition) at 10uM” value amounted to 11.5%.

Take `COc1ccc(/C=C(\CC(=O)O)c2nc3ccccc3o2)cc1`: the “hERG current change (%, negative = inhibition) at 10uM” value was 11.8%.

As for `COc1ccc(OC)c2c1sc(=NC(=O)c1ccco1)n2C`, the “hERG current change (%, negative = inhibition) at 10uM” value worked out at 14.8%.

For the compound `CCCCN(c1ccccc1)S(=O)(=O)c1ccc2c(c1)CCN2C(=O)CCC(=O)O`, the “hERG current change (%, negative = inhibition) at 10uM” value is given as 11%.

Turning to `Cc1ccc(C)c(/C=N/NC(=S)NCCc2ccccc2)c1`, the “hERG current change (%, negative = inhibition) at 10uM” value is reported as -2.51%.

With `O=C(c1sccc1-n1cccc1)N1CCCC1`, the “hERG current change (%, negative = inhibition) at 10uM” value is recorded as 18.8%.

On to `COc1ccc(N2CCN(C(=O)CCCn3c(=S)[nH]c4cc5c(cc4c3=O)OCO5)CC2)cc1`, for which the “hERG current change (%, negative = inhibition) at 10uM” value came to 11.7%.

On to `CCC(C)[C@H](N)c1cn([C@@H](Cc2ccc(O)cc2)C(=O)N2CCNCC2)nn1.Cl` (stereo partly drawn), for which the “hERG current change (%, negative = inhibition) at 10uM” value is listed as 15.2%.

As to `O=C(O)CSc1nnc(C2CC2)n1-c1ccccc1`, the “hERG current change (%, negative = inhibition) at 10uM” value worked out at 0.585%.

In the case of `Cc1ccc(-c2nc3ncccc3o2)cc1NC(=O)c1cccnc1`, the “hERG current change (%, negative = inhibition) at 10uM” value is given as -11.9%.

Consider `COc1ccc2cc(CN(CCCN3CCOCC3)Cc3nnnn3C3CCCC3)c(=O)[nH]c2c1`, for which the “hERG current change (%, negative = inhibition) at 10uM” value is -59.7%.

`O=C(COC(=O)c1ccc2c(c1)C(=O)N(Cc1ccco1)C2=O)NCC(F)(F)F`: the “hERG current change (%, negative = inhibition) at 10uM” value was -15.5%.

On to `O=C(CNC(=O)C12CC3CC(CC(C3)C1)C2)Nc1ncccc1O`, for which the “hERG current change (%, negative = inhibition) at 10uM” value is -15.5%.

As to `CC(C)CNC(=O)/C=C/C(=O)O`, the “hERG current change (%, negative = inhibition) at 10uM” value turned out to be 10.7%.

For the compound `O=C(Nc1cccnc1)c1ccc(-c2cc(Cl)ccc2Cl)o1`, the “hERG current change (%, negative = inhibition) at 10uM” value is given as 18.3%.

For the compound `O=C(O)CCCNS(=O)(=O)c1ccc2c(c1)OCCCO2`, the “hERG current change (%, negative = inhibition) at 10uM” value is listed as -12%.

In the case of `COC/C=C1\CN2C3C[C@@H]1[C@H]1COC4=Nc5cc(OC)c(OC)c(OC)c5[C@@]43C[C@@H]12`, the “hERG current change (%, negative = inhibition) at 10uM” value was -2.85%.

As for `CCOc1ccc(N2C(=O)/C(=C/c3cccs3)N(CC(=O)OC)C2=S)cc1`, the “hERG current change (%, negative = inhibition) at 10uM” value is recorded as -28%.

Regarding `O=C(c1cc2ccccc2oc1=O)N(Cc1ccc2c(c1)OCO2)Cc1ccco1`, the “hERG current change (%, negative = inhibition) at 10uM” value is listed as -59.3%.

Take `O=C(NCc1ccc2c(c1)OCO2)c1cc2ccccc2oc1=O`: the “hERG current change (%, negative = inhibition) at 10uM” value turned out to be 12%.

Consider `CCOC(=O)c1nc(-c2ccc3c(c2)OCO3)[nH]c1C`, for which the “hERG current change (%, negative = inhibition) at 10uM” value is listed as -13.7%.
